These results are taken from the supplement of paper PMC10126150.

Sequences with one replicate were seen in a single cluster, so their values are uncertain.
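Further: ATP exposure 15 min at 22 °C before imaging.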

This data set has as its system ATP. Nature of the data set: switch fluorescence ratio, 500 uM ATP over buffer (Cy3 cluster intensity, sum of 5 cycles each) (fold (ratio)); higher = stronger signal-on switching upon ATP binding; sequences stand for … in TCGTCGGCAGCGTCAGATGTGTATAAGAGACAGTTTTTTTTTTTTTTTTTTTTTTTTT…TC. Particulars: aptamer strand: ATP DNA aptamer (quencher-CACCTGGGGGAGTATTGCGGAGGAAGG + anchor), 100 nM annealed; ATP concentration: 500 uM; one replicate. The gist of the method: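 For every switch-domain sequence, the fluorescence ratio is the mean of per-cluster values, each being summed target-cycle Cy3 intensity over summed buffer-cycle Cy3 intensity. Clusters outside 100-1000 RFU were excluded. On a modified Illumina MiSeq flow-cell, the Cy3-labelled switching-strand clusters were annealed to 100 nM quencher-labelled ATP aptamer, imaged in selection buffer and then after 15 min with 500 uM ATP at 22 °C. Five such cycles were run, with NaOH stripping and re-annealing between them.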
On to ATGACTGGGG, for which the switch fluorescence ratio came out at 0.95. With GGAGGTTGAC, the switch fluorescence ratio worked out at 1.01. Consider TGAAAGTAGG, for which the switch fluorescence ratio is 0.977.

As to CCAGGCTGGT, the switch fluorescence ratio is 1.04. CCTTTATAAG: the switch fluorescence ratio worked out at 0.987. For ACAGAGGCGT the value was 0.995; for CATATGTCAC, 0.993.

As to TGGGCGAAC, the switch fluorescence ratio was 1. Consider TAATCTGTCA, for which the switch fluorescence ratio is 0.996. Consider AGTTTCAAAC, for which the switch fluorescence ratio is 0.937. Turning to ATCTTACTAG, the switch fluorescence ratio stood at 1.04. For CTGTATCGAG the value was 0.974; for CGGAGCGGTT, 1.39. For the sequence TTAACTCCTA, the switch fluorescence ratio is 1.03.

On to ATTACACCGT, for which the switch fluorescence ratio is 1.04. As to CTAAAATGTT, the switch fluorescence ratio is 1.04. Then CGGTGTTATG, with 1.01; and TATAACATAC, with 1.37; and TTTGAGCGTA, with 0.988. As for CACTGAAGCC, the switch fluorescence ratio stood at 1.05. On to GGTACACGCC, for which the switch fluorescence ratio amounted to 1.06. GTGGCCAATA: the switch fluorescence ratio came to 0.991. For AACTGTAGCG the value was 1.06. For GATACGTCCA, the switch fluorescence ratio amounted to 1. Then CAAGTGGACC, with 1.03. With GTCGCATGCC, the switch fluorescence ratio is 1.03. Then CATAAAGATT, with 0.988.

With AACGTTGGGT, the switch fluorescence ratio was 0.969.

On to TTTGAAGGTC, for which the switch fluorescence ratio came to 1.

TCGATTACCT: the switch fluorescence ratio stood at 1.21. Turning to GGCGTTCTGG, the switch fluorescence ratio came out at 1.01. As to TGATTAGTGG, the switch fluorescence ratio was determined as 0.954. Consider ACAGGTTTCA, for which the switch fluorescence ratio is 0.998. Consider AGGAGGGGAA, for which the switch fluorescence ratio was found to be 1. For AACAGGGATC, the switch fluorescence ratio is 1.03.

As for AGTGACAATA, the switch fluorescence ratio stood at 1.06. Then AGCTAATC, with 1.1; and ACTATATCAT, with 1.11; and CCTAAAACGG, with 0.994. Consider GCCGGATATC, for which the switch fluorescence ratio amounted to 1.03. Then CCAGTTGAAT, with 1.06; and CATGGTTG, with 1.02; and TCGTTAGACT, with 1.02. ATTTACGTTG: the switch fluorescence ratio turned out to be 0.992. Take CAAAATCAGC: the switch fluorescence ratio was 0.903.

Consider GCCCATGTGC, for which the switch fluorescence ratio is 1.29. With TAGGAGTCAC, the switch fluorescence ratio worked out at 0.957. For the sequence AGTAATTTAG, the switch fluorescence ratio amounted to 1.04.

Take CTGAGGACC: the switch fluorescence ratio was 1.06. Consider CAGGCGTTCG, for which the switch fluorescence ratio was 1.03.

Consider GTTAATGTGG, for which the switch fluorescence ratio came to 0.968. Then TGCGAAGGTA, with 0.958; and AATACCCGAT, with 1.04; and ACGGATCCGA, with 1.04. For AGGGAATCT the value was 1.01; for TGATAGTTG, 1.

Take CGGGCTCAGT: the switch fluorescence ratio was found to be 1.02. As for TGTCCCAAAC, the switch fluorescence ratio was 1.21. GCGGGTGGCC: the switch fluorescence ratio came out at 1.06. Consider TGCCAACATG, for which the switch fluorescence ratio is 0.968. CCAAACGAGG: the switch fluorescence ratio was 0.98.

For TCTATAATTA, the switch fluorescence ratio came out at 0.988. For CGCGCCTGAA the value was 1.02. For GGCGGACGGG the value was 0.997; for ATCGAATAAG, 0.964. Consider AGACCGATTG, for which the switch fluorescence ratio stood at 0.967. In the case of ATAACCTGGT, the switch fluorescence ratio was 1. For the sequence TTGTGGAAGT, the switch fluorescence ratio was 0.952. For AGTGGGAACG the value was 0.991; for AATATGGGAC, 1.03. In the case of TTCGTAAAGC, the switch fluorescence ratio stood at 1.09. Regarding ATCGTCTGGA, the switch fluorescence ratio is 1.02. For AACGTAACA, the switch fluorescence ratio was 1.26.

On to ACTATTTAGC, for which the switch fluorescence ratio was 1.01. For TTTGTCCTAC the value was 1; for CCAGACATCG, 1.06. As for ACAAGCCGGC, the switch fluorescence ratio is 0.999.

As for TTAAAAGAAG, the switch fluorescence ratio stood at 0.948.
